By Kd is commonly meant the concentration at which binding is half-saturated. Low values mean a tighter complex, high ones a looser complex.

The assay concerns the target T1, phosphorylated SNAP-ADAP fusion protein (ADAP amino acids 570-690) (human, UniProt O15117 570-690, phosphotyrosine (in vitro phosphorylation by Fyn kinase, approx. 90% of each phosphorylation site; sites in Table S1); BG-647 dye on the SNAP-tag).
T1 chain: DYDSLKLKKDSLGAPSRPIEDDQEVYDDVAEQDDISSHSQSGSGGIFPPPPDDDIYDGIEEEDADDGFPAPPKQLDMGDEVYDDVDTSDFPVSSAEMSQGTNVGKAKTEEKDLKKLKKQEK
As to the kind of experiment: MST.

B1: Src SH2 domain without biotin (for MST) (domain or fragment)
chain: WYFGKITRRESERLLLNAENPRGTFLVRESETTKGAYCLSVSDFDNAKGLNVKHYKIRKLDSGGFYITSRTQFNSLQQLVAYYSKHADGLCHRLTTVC
Molecule B1 yielded a Kd of 1150 nM.

(Values after PMC3858276 (2013).)
